The values that follow come from the antibiotic and cytotoxicity screens of Wong et al. (2023).

The test system of one assay is HSkMC. Description: cytotoxicity call (relative viability < 0.9). The conditions noted are these: 10 µM.
A further assay deals with HepG2. Description: cytotoxicity call (relative viability < 0.9). The conditions noted are these: 10 µM.
The next assay relates to S. aureus RN4220. Description: growth inhibition call (relative growth <= 0.2). The settings on record: 50 µM.

Each structure is given as a SMILES string. The list shows a part of the results.

On to `C[C@@H]1CN([C@H](C)CO)S(=O)(=O)c2ccc(Br)cc2O[C@H]1CN(C)C(=O)Nc1ccccc1`, for which the cytotoxicity call in the assay on HSkMC and with HepG2 was “inactive” in each case. Further, the growth inhibition call in the assay with S. aureus RN4220 was “inactive”.
With `CNC(=O)[C@H]1C[C@@H]2CCN(C(=O)N(C)C)C[C@H]2O1`, the cytotoxicity call in the assay with HSkMC and with HepG2 was “inactive” throughout. Further, the growth inhibition call in the assay with S. aureus RN4220 is “inactive”.
Turning to `O=C(O)c1ccc(N[C@@H]2OC[C@H](O)[C@@H](O)[C@@H]2O)cc1`, the cytotoxicity call with HSkMC and in the assay on HepG2 was “inactive” throughout. Further, the growth inhibition call with S. aureus RN4220 was “inactive”.
With `COc1ccc(S(=O)(=O)N(C)C[C@H]2Oc3ccc(NC(=O)NC(C)C)cc3C(=O)N([C@H](C)CO)C[C@@H]2C)cc1`, the cytotoxicity call in the assay on HSkMC and in the assay on HepG2 was “inactive” throughout. The growth inhibition call in the assay with S. aureus RN4220 is “inactive”.
In the case of `C[C@@H]1CN([C@H](C)CO)C(=O)c2cc(NS(=O)(=O)c3ccc(Cl)cc3)ccc2O[C@@H](C)CCCCO[C@H]1CN(C)S(=O)(=O)c1ccccc1`, the cytotoxicity call in the assay with HSkMC is “inactive”. Besides, the cytotoxicity call in the assay on HepG2 is “active”. Also, in the assay on S. aureus RN4220, the growth inhibition call was “inactive”.
`C[C@H]1CN([C@@H](C)CO)S(=O)(=O)c2ccc(Br)cc2O[C@@H]1CN(C)C(=O)c1cnccn1`: the cytotoxicity call with HSkMC and in the assay on HepG2 was “inactive” throughout. Further, the growth inhibition call in the assay with S. aureus RN4220 was “inactive”.
Regarding `C[C@@H]1CC[C@@]2(OC1)O[C@H]1C[C@H]3[C@H]4C[C@@H](O)[C@H]5C[C@@H](O[C@@H]6O[C@H](CO)[C@H](O[C@@H]7O[C@H](CO)[C@@H](O)[C@H](O[C@@H]8OC[C@@H](O)[C@H](O)[C@H]8O)[C@H]7O[C@@H]7O[C@H](CO)[C@@H](O)[C@H](O)[C@H]7O)[C@H](O)[C@H]6O)[C@H](O)C[C@]5(C)[C@@H]4CC[C@]3(C)[C@H]1[C@@H]2C`, the cytotoxicity call with HSkMC is “inactive”. In addition, the cytotoxicity call in the assay with HepG2 is “active”. In addition, the growth inhibition call in the assay with S. aureus RN4220 is “inactive”.
`Oc1ccc(Cl)c2cccnc12`: the cytotoxicity call in the assay on HSkMC is “inactive”. Moreover, in the assay with HepG2, the cytotoxicity call is “active”. Also, the growth inhibition call in the assay on S. aureus RN4220 was “inactive”.
Turning to `C[C@@H]1CN([C@@H](C)CO)C(=O)c2ccccc2-c2ccccc2CO[C@@H]1CN(C)Cc1ccc(Cl)c(Cl)c1`, the cytotoxicity call with HSkMC and in the assay with HepG2 was “inactive” throughout. Besides, the growth inhibition call in the assay on S. aureus RN4220 was “inactive”.
Take `CC(=O)n1cc([C@H]2C=C(C(=O)N3CCOCC3)O[C@@H](OCCCCOC(=O)NCCCCCC(=O)NO)C2)c2ccccc21`: the cytotoxicity call in the assay on HSkMC and with HepG2 was “inactive” in each case. Besides, the growth inhibition call in the assay with S. aureus RN4220 is “inactive”.
For `CO[C@@H]1CN(C)C(=O)c2ccc(NS(C)(=O)=O)cc2OC[C@@H](C)N(C(=O)c2ccc3c(c2)OCO3)C[C@@H]1C`, the cytotoxicity call in the assay on HSkMC and in the assay with HepG2 was “inactive” in each case. Besides, the growth inhibition call in the assay on S. aureus RN4220 was “inactive”.
Regarding `Cc1ccc(S(=O)(=O)N(C)C[C@H]2Oc3c(NS(=O)(=O)c4ccc(F)cc4)cccc3C(=O)N([C@H](C)CO)C[C@@H]2C)cc1`, the cytotoxicity call in the assay on HSkMC and in the assay on HepG2 was “inactive” throughout. The growth inhibition call with S. aureus RN4220 was “inactive”.
Consider `Cc1noc(C)c1NC(=O)Nc1ccc2c(c1)C(=O)N([C@@H](C)CO)C[C@H](C)[C@H](CN(C)S(=O)(=O)c1ccccc1)OCCCC[C@@H](C)O2`, for which the cytotoxicity call in the assay with HSkMC and in the assay on HepG2 was “inactive” throughout. Besides, the growth inhibition call in the assay on S. aureus RN4220 is “inactive”.
On to `C[C@@H]1CCCCO[C@@H](CN(C)C(=O)Cc2ccccc2)[C@@H](C)CN([C@H](C)CO)C(=O)c2cc(NC(=O)Nc3ccccc3)ccc2O1`, for which the cytotoxicity call in the assay with HSkMC and in the assay on HepG2 was “inactive” throughout. Moreover, the growth inhibition call in the assay with S. aureus RN4220 is “inactive”.
Turning to `Cc1noc(C)c1S(=O)(=O)N(C)C[C@H]1Oc2ccc(NS(C)(=O)=O)cc2CC(=O)N([C@@H](C)CO)C[C@@H]1C`, the cytotoxicity call with HSkMC and in the assay with HepG2 was “inactive” in each case. For the same molecule, in the assay on S. aureus RN4220, the growth inhibition call is “inactive”.
Consider `C[C@@H]1CN([C@@H](C)CO)C(=O)CCCn2nncc2CO[C@H]1CN(C)S(=O)(=O)c1cccc(C#N)c1`, for which the cytotoxicity call with HSkMC and in the assay on HepG2 was “inactive” in each case. Besides, the growth inhibition call in the assay on S. aureus RN4220 is “inactive”.
Turning to `Cc1noc(C)c1NC(=O)Nc1ccc2c(c1)C(=O)N([C@H](C)CO)C[C@H](C)[C@H](CN(C)C(=O)c1ccccc1)OCCCC[C@@H](C)O2`, the cytotoxicity call in the assay on HSkMC and in the assay on HepG2 was “inactive” throughout. In addition, the growth inhibition call with S. aureus RN4220 was “inactive”.
Turning to `Cc1ccc(S(=O)(=O)Nc2ccc3c(c2)C(=O)N([C@H](C)CO)C[C@@H](C)[C@H](CN(C)C(=O)Nc2ccc(F)cc2)OCCCC[C@@H](C)O3)cc1`, the cytotoxicity call in the assay on HSkMC and with HepG2 was “active” throughout. The growth inhibition call with S. aureus RN4220 is “inactive”.
With `C[C@@H]1CN([C@@H](C)CO)C(=O)Cc2cc(NC(=O)Nc3ccc4c(c3)OCO4)ccc2O[C@H]1CN(C)Cc1ccc(Cl)c(Cl)c1`, the cytotoxicity call in the assay on HSkMC (human skeletal muscle cells) was “inactive”. Further, in the assay on HepG2, the cytotoxicity call is “active”. Also, the growth inhibition call in the assay on S. aureus RN4220 is “inactive”.
With `C[C@H](CO)N1C[C@H](C)[C@H](CN(C)S(C)(=O)=O)OCCCC[C@H](C)Oc2ccc(NS(=O)(=O)c3cccs3)cc2C1=O`, the cytotoxicity call with HSkMC and in the assay with HepG2 was “inactive” each time. In addition, in the assay on S. aureus RN4220, the growth inhibition call is “inactive”.
Take `CNC1C(OC2OC(CO)C(N)C(O)C2O)OC2CC(N)C(OC3C(N)CC(N)C(O)C3O)OC2C1O.O=S(=O)(O)O` (centres undefined): the cytotoxicity call in the assay with HSkMC and in the assay on HepG2 was “inactive” each time. In the assay on S. aureus RN4220, the growth inhibition call is “active”.
Consider `COc1ccc(S(=O)(=O)N[C@@H]2CC[C@@H](CCNC(=O)CN3CCOCC3)O[C@@H]2CO)cc1`, for which the cytotoxicity call with HSkMC and with HepG2 was “inactive” in each case. The growth inhibition call with S. aureus RN4220 is “inactive”.
On to `C[C@H]1CN([C@@H](C)CO)C(=O)c2cc(NS(=O)(=O)c3ccccc3)ccc2O[C@H]1CN(C)Cc1ccc(-c2ccccc2)cc1`, for which the cytotoxicity call in the assay with HSkMC and with HepG2 was “inactive” throughout. Besides, in the assay on S. aureus RN4220, the growth inhibition call was “inactive”.
